Laboratory results reported in US20020164333A1, “Bifunctional molecules and vectors complexed therewith for targeted gene delivery” (The Scripps Research Institute, priority 2000, published 2002).

Legend:
[1] = tested on: M21-L12 human melanoma cells; assay: Ad-mediated gene delivery and expression assay (β-galactosidase staining); format: cell-based; conditions: for cells stained positive for β-galactosidase: Ad RSV-LacZ vector preincubated with antibody at 2 antibody molecules per RGD motif, M21-L12 cells, 48 hrs post-infection
penton base [2] = biological target: T1, penton base (Human adenovirus C serotype 2, UniProt P03276); conditions: cited from earlier work
T1 construct: made in house; host or cells: Trichoplusia Tn 5B1-4 insect cells, baculovirus vector pBlueBac

Ad2 = conditions: cited from earlier work
M21-L12 cells = assay: Adenovirus internalization assay (resistance to trypsin digestion); format: cell-based, human; conditions: 125I-labeled virus
SW480 epithelial cells = assay: Gene delivery by fiberless adenovirus complexed with bifunctional molecules (β-gal staining); format: cell-based, human; conditions: fiberless adenovirus particles complexed with the molecule, 48 post infection
penton base [3] = biological target: T1, penton base; assay: ELISA on immobilized penton base; format: binding, Ad2
Ad particles = assay: ELISA on immobilized Ad particles; format: binding, adenovirus
MCF-7 = assay: Cytotoxicity against TNF-sensitive cell line; format: cell-based; conditions: TNF-α sensitive cell line MCF-7

T1 sequence (P03276 whole entry): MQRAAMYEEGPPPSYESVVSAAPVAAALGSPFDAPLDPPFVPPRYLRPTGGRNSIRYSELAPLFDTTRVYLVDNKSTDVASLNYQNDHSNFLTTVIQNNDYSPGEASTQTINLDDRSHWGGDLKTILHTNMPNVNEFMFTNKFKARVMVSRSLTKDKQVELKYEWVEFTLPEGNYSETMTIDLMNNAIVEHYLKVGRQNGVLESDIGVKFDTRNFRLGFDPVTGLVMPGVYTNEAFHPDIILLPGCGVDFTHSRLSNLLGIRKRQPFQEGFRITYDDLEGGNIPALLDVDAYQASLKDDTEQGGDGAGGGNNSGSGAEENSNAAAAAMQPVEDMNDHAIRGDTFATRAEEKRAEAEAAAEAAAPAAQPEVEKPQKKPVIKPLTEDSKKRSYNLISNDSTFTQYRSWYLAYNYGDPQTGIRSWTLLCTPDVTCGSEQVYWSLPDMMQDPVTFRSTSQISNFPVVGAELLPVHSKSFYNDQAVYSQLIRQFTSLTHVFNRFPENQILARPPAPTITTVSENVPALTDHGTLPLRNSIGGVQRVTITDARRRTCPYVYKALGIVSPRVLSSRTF

B1: D: penton base monoclonal antibody which recognizes the integrin binding site on adenovirus particle types 2/5; control antibody (antibody)
heavy: EVQLQQSGPELVKPGASVKISCKASGYTFTDYNMHWVKQSHGKSLEWIGYIYPYKGGTGYNQKFKSKATLTTDSSSNTAYMELRSLTSDASAVYYCARGIAYWGQGTLVTVSAAKTTPPSVYPLAPGSAAQTNSMVTLGCLVKGYFPEPVTVTWNSGSLSSGVHTFPAVLQSDLYTLSSSVTVPSSTWPSETVTCNVAHPASSTKVDKKIVPRDCGCKPCICTVPEVSSVFIFPPKPKDVLTITLTPKVTCVVVDISKDDPEVQFSWFVDDVEVHTAQTQPREEQFNSTFRSVSELPIMHQDWLNGKEFKCRVNSAAFPAPIEKTISKTKGRPKAPQVYTIPPPKEQMAKDKVSLTCMITDFFPEDITVEWQWNGQPAENYKNTQPIMDTDGSYFVYSKLNVQKSNWEAGNTFICSVLHEGLHNHHTEKSLSHSPGK
light: DIVLTQSPASLAVSLGQRATISCKASQSVDYDGDSYMNWYQQKPGQPPKLLIYAASNLESGIPARFSGSGSGTDFTLNIHPVEEEDAATYYCQQTNEDPWTFGGGTKLEIKRADAAPTVSIFPPSSEQLTSGGASVVCFLNNFYPKDINVKWKIDGSERQNGVLNSWTDQDSKDSTYSMSSTLTLTKDEYERHNSYTCEATHKTSTSPIVKSFNRNEC
In the case of B1, the “cells stained positive for β-galactosidase” value [1] is listed as “less than 3%”, the “affinity for penton base” value (penton base [2]) is listed as “high affinity” and the “inhibition of virus infection” value (Ad2) is listed as “does not inhibit virus infection”.

B2: DT: DAV-1 fused to TNF-α; heavy chain fusion SEQ ID NO. 11 co-expressed with DAV-1 light chain (antibody)
heavy: EVQLQQSGPELVKPGASVKISCKASGYTFTDYNMHWVKQSHGKSLEWIGYIYPYKGGTGYNQKFKSKATLTTDSSSNTAYMELRSLTSDASAVYYCARGIAYWGQGTLVTVSAAKTTPPSVYPLAPGSAAQTNSMVTLGCLVKGYFPEPVTVTWNSGSLSSGVHTFPAVLQSDLYTLSSSVTVPSSTWPSETVTCNVAHPASSTKVDKKIVPRDCGCKPCICTVPEVSSVFIFPPKPKDVLTITLTPKVTCVVVDISKDDPEVQFSWFVDDVEVHTAQTQPREEQFNSTFRSVSELPIMHQDWLNGKEFKCRVNSAAFPAPIEKTISKTKGRPKAPQVYTIPPPKEQMAKDKVSLTCMITDFFPEDITVEWQWNGQPAENYKNTQPIMDTDGSYFVYSKLNVQKSNWEAGNTFICSVLHEF[skipping about 150 residues]
light: B1 light
notes: DAV-1 fused to TNF-α; 11 co-expressed with DAV-1 light chain
With B2 the “cells stained positive for β-galactosidase” value [1] was “Approximately 60%”, the “enhancement of Ad-mediated gene delivery” value ([1]; Ad vector complexed with the molecule, M21-L12 melanoma cells lacking αv integrins) was “approximately 30 fold” and the “increase in gene delivery when DT is added after infection” value ([1]; M21-L12 cells infected with adenovirus alone for three hours, then DT added, 48 hours post-infection) was “very little increase”. The adenovirus internalization (M21-L12 cells) was “significantly increased the rate and extent of adenovirus internalization”, the “increased gene delivery compared to the uncomplexed fiberless particles” value (SW480 epithelial cells) was 10-15 fold and the “binding to immobilized penton base” value (penton base [3]) was “capable of binding”. For the same molecule, the “binding to immobilized Ad particles” value (Ad particles) was “capable of binding” and the cytotoxicity (MCF-7) was “elicited cytotoxicity”.
